# According to the supplement of paper PMC4894684:
# Where a name gives a salt, the structure may show the parent alone. ± gives the standard deviation of the averaged measurements. Out of some 1,000 compounds screened, about 15 (2%) showed an effect of 50% or more. The list shows a part of the results.
# System: HFF
# Assay: uninfected host cell viability relative to vehicle control; higher = less host cell toxicity
# Details: 5 µM; 72 h; oxygen 21 %
# 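Note: confluent HFF monolayers, run in parallel with the Toxoplasma growth screen as a host toxicity counterscreen.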
row,Structure (SMILES),uninfected host cell viability [%]
1,C[C@@]12N[C@@H](Cc3ccccc31)c1ccccc12 [(-)-MK 801 maleate],86.9 ± 2
2,COc1ccc(C[C@H]2NC[C@H](O)[C@H]2OC(C)=O)cc1 [Anisomycin],52.6 ± 3.3
3,NCCc1c[nH]c2ccc(O)cc12 [Serotonin],92.55 ± 0.43
4,O=C1Nc2cc(Cl)c(Cl)cc2N2CCNCC12 (centres undefined),80.7 ± 2.8
5,CC(C)(C)NCC(O)COc1cccc2[nH]c(C#N)cc12 (centres undefined) [Cyanopindolol hemifumarate],83.4 ± 2.1
6,C[C@@H]1CC[C@H]2[C@@H](C)C(=O)O[C@@H]3O[C@@]4(C)CC[C@@H]1[C@]32OO4 [Artemisinin],94.89 ± 0.53
7,CN1[C@@H]2CC[C@H]1C[C@@H](OC(c1ccc(F)cc1)c1ccc(F)cc1)C2 [3α-Bis-(4-fluorophenyl) methoxytropane hydrochloride],79.5 ± 5.1
8,O=[N+]([O-])c1cc(O)c(O)c([N+](=O)[O-])c1,95.7 ± 4.9
9,CN[C@@H]1C[C@@H](c2ccc(Cl)c(Cl)c2)c2ccccc21 [Indatraline hydrochloride],78.7 ± 3
10,O=C(O)Cc1cccnc1C(=O)O [Homoquinolinic acid],96.03 ± 0.14
11,CN(C)CCN(C)CCc1ccc(Cl)c(Cl)c1 [BD 1047 dihydrobromide],84.5 ± 2
12,N=C(N)NN [Aminoguanidine hydrochloride],88.2 ± 2.1
13,C=CCN1C[C@H](C)N([C@H](c2ccc(C(=O)N(CC)CC)cc2)c2cccc(O)c2)C[C@H]1C,97.95 ± 0.16
14,C=CCN1C[C@H](C)N([C@H](c2ccc(C(=O)N(CC)CC)cc2)c2cccc(OC)c2)C[C@H]1C,90.1 ± 1.5
15,CCCCCCC[n+]1ccc(-c2cc[n+](CCCCCCC)cc2)cc1 [DHBP dibromide],91.6 ± 1.5
16,Clc1ccc(C2=CCCC3CCC2N3)cn1 (centres undefined) [UB 165 fumarate],89 ± 1.1
17,CN1Cc2ccccc2[C@@H]2c3cccc4[nH]cc(c34)C[C@H]21,86.3 ± 3.7
18,O=C(N[C@H]1CN2CCC1CC2)c1ccc(Cl)cc1,84.4 ± 4.8
19,N#Cc1ccc(N2CCN(C(=O)COc3ccc4[nH]cc(CCN)c4c3)CC2)cc1 [Donitriptan hydrochloride],98.31 ± 0.13
20,COc1ccc2c(c1)c(CCN1CCOCC1)c(C)n2C(=O)c1cccc(Cl)c1Cl,85.3 ± 3
21,C=C(C)[C@H]1CN[C@H](C(=O)O)[C@H]1CC(=O)O [Kainic acid],99.19 ± 0.44
22,C[C@H](N)Cc1cnc[nH]1 [(S)-(+)-a-Methylhistamine dihydrobromide],84.3 ± 2

row,Structure (SMILES),uninfected host cell viability [%]
1,c1ccc(CCCCN2CCC(c3ccccc3)CC2)cc1 [4-PPBP maleate],95.4 ± 2.2
2,S=C(NC1CCCCC1)N1CCC(c2cnc[nH]2)CC1 [Thioperamide],90.1 ± 1.5
3,N[C@@H](Cn1oc(=O)[nH]c1=O)C(=O)O [L-Quisqualic acid],96.3 ± 2.2
4,C[C@H](Cc1ccc(OCC(=O)O)cc1)NC[C@H](O)c1cccc(Cl)c1,92.2 ± 2.6
5,CC(=O)N(C)c1cccc(-c2ccnc3c(C(=O)c4cccs4)cnn23)c1 [Indiplon],96 ± 5.5
6,C=CCN1CC[C@]23c4c5ccc(O)c4O[C@H]2/C(=N/NC(=O)c2ccccc2)CC[C@@]3(O)[C@H]1C5 [Naloxone benzoylhydrazone],93.47 ± 0.71
7,O=c1[nH]c2ccccc2n1CCCN1CCC(n2c(=O)[nH]c3cc(Cl)ccc32)CC1 [Domperidone],88.1 ± 2.1
8,C1CCc2nnnn2CC1 [Pentylenetetrazole],96 ± 1.4
9,"CN(C(=O)Cc1ccc(Cl)c(Cl)c1)[C@H](CN1CCCC1)c1ccccc1 [ICI-199,441 hydrochloride]",82.4 ± 1.6
10,Cc1cccc(C(C)c2c[nH]cn2)c1C (centres undefined) [Medetomidine hydrochloride],92.1 ± 1.9
11,C[N+](C)(C)CC#CCN1CCCC1=O [Oxotremorine M],83.6 ± 3.5
12,COc1ccc(CNC(=O)/C=C/c2ccc3[nH]cc(CCN(C)C)c3c2)cc1,92.3 ± 0.25
13,CC(N)Cc1c[nH]c2ccc(OCc3cccs3)cc12 (centres undefined) [BW 723C86 hydrochloride],79.4 ± 1.7
14,CN1CCC(c2c[nH]c3ccc(O)cc23)CC1,82.8 ± 1.5
15,CC(C)[C@@]1(NC(=O)[C@@H]2C[C@@H]3c4cccc5[nH]cc(c45)C[C@H]3N(C)C2)O[C@@]2(O)[C@@H]3CCCN3C(=O)[C@H](Cc3ccccc3)N2C1=O [Dihydroergocristine mesylate],90.5 ± 3.4
16,CC(=O)C1=C(O)[C@@H]2[C@H]3c4c[nH]c5cccc(c45)C[C@H]3C(C)(C)N2C1=O [Cyclopiazonic Acid],85.67 ± 0.58
17,O=Cc1cn(Cc2ccc(Cl)cc2)c2ccccc12 [Oncrasin 1],88.62 ± 0.5
18,NCC(CS(=O)(=O)O)c1ccc(Cl)cc1 (centres undefined) [Saclofen],87.1 ± 2.1
19,CC(C(=O)OC1CC2CCC(C1)N2C)c1ccc(Br)cc1 (centres undefined) [PG-9 maleate],89.1 ± 2.2
20,Cc1[nH]c2ccc(O)cc2c1CCN [2-Methyl-5-hydroxytryptamine hydrochloride],83 ± 4.7
21,Cc1ncc(CN2CC=C(c3ccccc3)CC2)c(N)n1,86.3 ± 3.6
22,COc1ccc(C(=O)N2CCCC2=O)cc1 [Aniracetam],92.9 ± 0.94

row,Structure (SMILES),uninfected host cell viability [%]
1,O=C1/C(=C/c2ccccc2)C[C@@]2(O)[C@H]3Cc4ccc(O)c5c4[C@@]2(CCN3CC2CC2)[C@H]1O5 [BNTX maleate],22.2 ± 1.1
2,Nc1ccncc1 [4-Aminopyridine],86.1 ± 1.4
3,COc1ccc(-n2nc(C(F)(F)F)cc2-c2ccc(Cl)cc2)cc1,91.9 ± 2.3
4,COc1cc2c(cc1O)C(CCc1ccc(Cl)cc1)N(C)CC2 (centres undefined),92.7 ± 3
5,C[C@H]1CCC/C=C/[C@@H]2C[C@H](O)C[C@H]2[C@H](O)/C=C/C(=O)O1 [Brefeldin A],45.4 ± 4
6,"C[N+]1(C)CCc2cc3c(cc2C1C1OC(=O)c2c1ccc1c2OCO1)OCO3 (single isomer, unassigned; (-)) [(-)-Bicuculline methobromide]",87.8 ± 4.6
7,OC1CCCCC1N1CCC(c2ccccc2)CC1 (racemic) [(±)-Vesamicol hydrochloride],88.6 ± 1.9
8,N.N.[Cl][Pt][Cl] [Cisplatin],92.8 ± 2.1
9,Oc1ccc2c3c1O[C@H]1c4[nH]c5c(c4C[C@@]4(O)[C@@H](C2)N(CC2CC2)CC[C@]314)C[C@@]1(O)[C@H]2Cc3ccc(O)c4c3[C@@]1(CCN2CC1CC1)[C@H]5O4 [nor-Binaltorphimine dihydrochloride],85.23 ± 0.22
10,c1cc(Cc2cnc[nH]2)ccn1 [Immethridine dihydrobromide],85.3 ± 3.4
11,c1ccc2nc(N3CCNCC3)ccc2c1 [Quipazine dimaleate],88 ± 4.3
12,O=C1NCN(c2ccccc2)C12CCN(CC1COc3ccccc3O1)CC2 (centres undefined) [Spiroxatrine],85 ± 1.8
13,CN1C[C@H](C(=O)N[C@]2(C)O[C@@]3(O)[C@@H]4CCCN4C(=O)[C@H](Cc4ccccc4)N3C2=O)C[C@@H]2c3cccc4[nH]cc(c34)C[C@H]21 [Dihydroergotamine mesylate],89.48 ± 0.56
14,O=C1NC(=O)c2c1c1c3ccccc3[nH]c1c1[nH]c3ccccc3c21 [Arcyriaflavin A],83.56 ± 0.33
15,NC1(c2ccccc2Cl)CCCCC1=O (centres undefined) [Norketamine hydrochloride],97.41 ± 0.47
16,CCCN(C/C=C/I)C1CCc2ccc(O)cc2C1 (centres undefined) [7-Hydroxy-PIPAT maleate],89.7 ± 1.6
17,CC[N+](CC)(CCCNC1=CC(=O)C(NCCC[N+](CC)(CC)Cc2ccccc2)=CC1=O)Cc1ccccc1 [Benzoquinonium dibromide],93.7 ± 6
18,CC[C@@]1(O)C(=O)OCc2c1cc1n(c2=O)Cc2cc3ccccc3nc2-1 [Camptothecin],71 ± 4.9
19,CC(C)C[C@@H](N)C1(c2ccc(Cl)cc2)CCC1,91.72 ± 0.29
20,CN1c2ccccc2C(NCCCCCCC(=O)O)c2ccc(Cl)cc2S1(=O)=O (centres undefined) [Tianeptine],94.4 ± 1.9
